The source gives no read counts; variants with many changes may rest on few reads.

The chains are these.
B1: LINE1-mini (parent)
chain: GGCAGAGCUCAACACAGCGUGGCAAAGUGGCUGUGGCUAGACUGCC

In this data set the parent is B1. The data set can be described thus: self-cleavage, relative activity (ratio to wild type); higher = more cleavage; in vitro, sequencing; the parent is a self-cleaving ribozyme.
Consider C13G A26U G40A, for which the self-cleavage was 0.08.
Under A12U A25U G35C stands 0.03.
With A12U C15U A26U C31A C42A, the self-cleavage stood at 0.01.
The result for A12U A14C A16C reads 0.16; that for C13G A16G C18U C31U, 0.03; that for A12U A14C G29C C42G, 0.
Take C13A A16U G33A U34G C37U: the self-cleavage worked out at 0.06.
As to A12U G30C C37U A39G G40U, the self-cleavage came out at 0.03.
Turning to C13A A14G A16C C18A A25U G29U, the self-cleavage worked out at 0.13.
Take A12U A14U A39C U43A C46U: the self-cleavage was found to be 0.04.
On to C13G G17C G27A C31A G35C G36C, for which the self-cleavage was found to be 0.01.
Take A12U A14C G22U: the self-cleavage is 0.04.
On to A12U C15G U38A A39U, for which the self-cleavage is 0.01.
The result for A12U A14G G40A reads 0.07.
In the case of C13G G19A U34C C37U U43G, the self-cleavage was 0.02.
The result for A12U C13A A24C C46U reads 0.06; that for A12U A16G A25C G36A, 0.01.
Under C13A U20C G30A U34G stands 0.01.
On to A12G G22C G29U, for which the self-cleavage came out at 0.01.
Under C13G G21A G35U G40A U43G stands 0; under A12U U20C G27U G30C, 0.42; under C13A G19C A26G G30A C37U, 0.03.
Under A12U C13U G22A stands 0.15; under A12U G22C U28C C45A, 0.03.
Under C13A G35U U43G C46A stands 0.05.
On to C13A G40C U43C, for which the self-cleavage was determined as 0.17.
On to C13A C31A G35U G44U, for which the self-cleavage is 0.01.
As to A12U G36C G44A, the self-cleavage stood at 0.05.
The result for C13A G19U C23U reads 0.11; that for A12G G29A G30C, 0.08.
The result for A12U A25G U34A reads 0.04.
The result for A12U A25C G30A reads 0.5.
As for C13G G17A G33C G44A, the self-cleavage amounted to 0.01.
With C13G G21C A25C U38A, the self-cleavage was found to be 0.13.
On to C13G C18G A26U, for which the self-cleavage was found to be 0.03.
Turning to C13G C31A G35C C42A, the self-cleavage worked out at 0.04.
Under C13A A16G C46U stands 0.04; under C13A C15U A16C, 0.09.
Consider A12U U32G U34C, for which the self-cleavage was found to be 0.09.
Under C13A A16C A24C G33C stands 0.01; under C13A A25C G29U U43A, 0.14.
Under A12U A24G U28C stands 0.22; under C13G A26U U28G C45G, 0.06; under A12U G21A G35C, 0.01.
The result for C13A C23U C42A reads 0.01; that for C13A G17U C37U C45G, 0.09; that for C13A A25U G36U G40A, 0.18.
Regarding C13A C15U A16G G30U C46A, the self-cleavage came to 0.15.
C13A G17A C37A: the self-cleavage stood at 0.08.
Take C13A C37U G40U A41U: the self-cleavage amounted to 0.2.
On to C13G C23A A26U, for which the self-cleavage is 0.26.
The result for C13A A24U A25U C37U U43A G44A reads 0.07.
Under A12U A16U C23A G30A stands 0; under C13A A16U G19A C23U, 0.13; under A12U U20G G22C A41C, 0.03.
Under A12U G21C C23U A25C G35C stands 0.04; under C13A G17C A26U G30U, 0.1.
On to C13G C37G A39C, for which the self-cleavage came to 0.05.
Take C13G C18G A25C G40U: the self-cleavage came to 0.02.
Under A12U A26U U28G stands 0.07.
In the case of A12U G27C G40C, the self-cleavage amounted to 0.05.
As to C13A A14G C15G A25C G40U, the self-cleavage is 0.03.
Take C13G G27C G40U: the self-cleavage was found to be 0.01.
With C13A C18A U20G C23A C37U A39U, the self-cleavage came to 0.16.
Under A12G G21C U28C G29U G36A stands 0.01; under A12U A24G G44U, 0.11.
Under A12U G19A U28C U32A G36A U43C stands 0.02.
Take A12G G22C U32C G40C: the self-cleavage was found to be 0.02.
For C13A C15G G17C C18U C46A, the self-cleavage is 0.02.
As for C13A G19A U20G C42G, the self-cleavage is 0.03.
The result for C13A U20A G44A reads 0.07.
For C13A G22U G35U C42U, the self-cleavage turned out to be 1.95.
The result for A12U A14G C15A reads 0.03; that for C13A A14U A39C, 0.07.
Regarding C13A C18G G22U G35A A41U C45G, the self-cleavage was found to be 0.03.
Consider A12U A24G G30U, for which the self-cleavage was 2.1.
As for A12G G44A C45A, the self-cleavage was found to be 0.04.
Consider C13A G33U C46G, for which the self-cleavage was determined as 0.06.
Under C13A C18U U20A stands 0.01; under C13G A16G G22A G27C C46A, 0.01; under A12U A14G C18U G22U G40A, 0.
Turning to C13G A14U C15A G22C, the self-cleavage is 0.03.
In the case of C13A G17U C23U G30A, the self-cleavage was found to be 0.09.
The result for C13A U28A G29U C37U C42G G44C reads 0.08.
The result for A12U C18U A26C G29A reads 0.66; that for A12U C18A C31U, 0.04; that for A12U G29U U32A, 0.31.
Under A12U U34G G44U stands 0.04; under C13A U20C G30U G33C, 0.17.
Regarding C13G G29U G33A, the self-cleavage was 0.08.
In the case of C13A G19A U32A G35U, the self-cleavage is 0.03.
For C13A A14G G17C C23A A25C G33A G44U, the self-cleavage was found to be 0.01.
Turning to A12U G27U G29U, the self-cleavage was 0.14.
For the variant C13G G17A G29U, the self-cleavage came out at 0.07.
Under C13A C15G G22A stands 0.02.
Turning to C13A G27C U34C, the self-cleavage is 0.01.
Under A12G U32A U34C stands 0.02; under C13A C15U G21C G29U, 0.05.
Turning to C13A U28A G44U, the self-cleavage turned out to be 0.2.
C13A A26C C46G: the self-cleavage was 0.24.
Consider A12U A26U U28G U32A, for which the self-cleavage was 0.02.
For C13G C15G U28C C31U, the self-cleavage is 0.03.
Under A12U C15A C31U G35A A39U stands 0.03; under C13A A24U U28C, 0.1.
The result for C13A G21U A41U reads 0.1; that for C13G G17A U32C, 0.11.
The result for C13A G27U U38A reads 0.05; that for A12U G22C U43A, 0.01.
As to A12U A14U G17U, the self-cleavage amounted to 0.05.
Take C13A U28C G35C G36U C45G: the self-cleavage was found to be 0.03.
Turning to C13A C15U C23G C45G, the self-cleavage worked out at 0.09.
The result for C13A C23A C31U reads 0.08.
For A12G U20C G30A G40C, the self-cleavage was determined as 0.03.
With A12U G21C G27A, the self-cleavage is 0.18.
For C13A G33A C45G, the self-cleavage was 0.11.
The result for C13A C23G A25U U32A U34A C37U reads 0.08; that for A12U U28G C37G, 0.01; that for C13A C31G C45U, 0.13.
Turning to A12U G19C A26U G30U C31U U34G, the self-cleavage was 0.01.
Under A12G G29C G30C G35U stands 0.03; under A12U U20C G22A U34A G36A C37U C45G, 0.18; under A12U G33C G36U, 0.02.
Under A12U U20A G35A stands 0.12.
The result for C13A G30A C45U reads 0.08.
With C13A G27C U32C U43C, the self-cleavage came to 0.2.
With A12U G17A C18A G35U, the self-cleavage amounted to 0.02.
Under C13G C31G U38A stands 0.03.
Regarding C13A A14G C15U G21A, the self-cleavage turned out to be 0.02.
With C13A G22A C23U, the self-cleavage worked out at 0.09.
The result for C13G C23G A25U C31U reads 0.04.
As for A12U A16U C18U, the self-cleavage was 0.
Under C13A G19C A24G stands 0.03; under C13A U20C G22A, 0.34.
As to C13A C18A G29U, the self-cleavage amounted to 0.14.
Under A12G G40U C46G stands 0.01; under C13A C18U C46G, 0.08.
As to C13G C37U C46G, the self-cleavage turned out to be 0.05.
The result for C13A C18A G30A C37U reads 0.09.
For the variant C13A U28G C42G, the self-cleavage was 0.02.
As to C13A U38C U43G C45G, the self-cleavage amounted to 0.02.
Consider A12G G35U G40C, for which the self-cleavage turned out to be 0.01.
Under C13A G33U U43G C46G stands 0.01; under C13A C37U U43C, 0.38; under A12U G27A G44C C46A, 0.11.
Consider A12U C18G U38A G40A C42U, for which the self-cleavage was determined as 0.02.
As for A12U A26G C42A, the self-cleavage was 0.04.
Regarding C13A G22A G27C G30U G44U, the self-cleavage was determined as 0.04.
The result for A12U G40A A41C reads 0.1; that for A12U C13U C23G, 0.35.
The result for A12U G17C G33U C37G G40C reads 0.03; that for C13A C18G G19C A39U, 0.01.
Under C13G G22A G29A A39C stands 0.52; under A12U U20C A41C, 0.01; under C13A G35C U43G C45U, 0.06.
For the variant C13A C23A A25G, the self-cleavage stood at 0.06.
In the case of A12U G21U G35A, the self-cleavage was 0.08.
For C13A C31A U32G G36U, the self-cleavage worked out at 0.02.
Under C13G C18G U28G stands 0.32; under C13A G19U A25C A26C C45G, 0.01.
The result for A12U G21C C37U reads 0.01.
The result for A12U G17C C37A reads 0.05; that for A12U G27C C46A, 0.03; that for A12U C18G G19A C23G C46A, 0.08.
For the variant C13G G17U A26U, the self-cleavage was 0.02.
Under A12U G30U U32A G36A stands 0.03.
The result for A12U U28C G40C reads 0.06.
Turning to C13A A14C G19U, the self-cleavage is 0.22.

(Values after the RNAGym collection of RNA variant scans (doi:10.7554/elife.90254).)
